From US7517874B2 (priority 2007, dated 2009)

What follows are compounds tested against human CB2 receptor (hCB2) (Homo sapiens, UniProt P34972) (assay: cell-based). Settings: not given.
Format: cell-based

human CB2 receptor (hCB2), sequence (P34972 whole entry): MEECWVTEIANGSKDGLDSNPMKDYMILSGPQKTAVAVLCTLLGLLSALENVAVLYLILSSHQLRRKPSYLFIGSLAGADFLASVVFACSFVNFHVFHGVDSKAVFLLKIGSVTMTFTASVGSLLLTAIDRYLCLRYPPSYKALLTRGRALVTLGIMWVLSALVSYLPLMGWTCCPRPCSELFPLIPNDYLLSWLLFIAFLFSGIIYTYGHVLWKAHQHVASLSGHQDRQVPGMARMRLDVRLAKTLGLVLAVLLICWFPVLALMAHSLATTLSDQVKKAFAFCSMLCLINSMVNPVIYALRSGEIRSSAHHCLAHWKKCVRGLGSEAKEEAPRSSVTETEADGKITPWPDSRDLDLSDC

Structure (SMILES)	EC50
CN1CCCn2c(-c3ccccc3)nc(C(=O)N[C@H](C(=O)NCC3CCOCC3)C(C)(C)C)c2C1 [Compound 479, (S)-N-(3,3-dimethyl-1-oxo-1-((tetrahydro-2H-pyran-4-yl)methylamino)butan-2-yl)-8-methyl-3-phenyl-6,7,8,9-tetrahydro-5H-imidazo[1,5-a][1,4]diazepine-1-carboxamide]	> 10000 nM
CNC(=O)[C@@H](NC(=O)c1nc(-c2cccc3cccnc23)n2c1CN(C)CC2)C(C)(C)C [Compound 242, (S)-N-(3,3-dimethyl-1-(methylamino)-1-oxobutan-2-yl)-7-methyl-3-(quinolin-8-yl)-5,6,7,8-tetrahydroimidazo[1,5-a]pyrazine-1-carboxamide]	> 10000 nM
CNC(=O)[C@@H](NC(=O)c1nc(-c2ccccc2)n2c1CN(C(=O)C1CC1)CC2)C(C)(C)C [Compound 126, (S)-7-(cyclopropanecarbonyl)-N-(3,3-dimethyl-1-(methylamino)-1-oxobutan-2-yl)-3-phenyl-5,6,7,8-tetrahydroimidazo[1,5-a]pyrazine-1-carboxamide]	> 10000 nM
CNC(=O)[C@@H](NC(=O)c1nc(-c2ccccc2)n2c1CN(C(=O)CC(C)(C)C)CC2)C(C)(C)C [Compound 188, (S)-N-(3,3-dimethyl-1-(methylamino)-1-oxobutan-2-yl)-7-(3,3-dimethylbutanoyl)-3-phenyl-5,6,7,8-tetrahydroimidazo[1,5-a]pyrazine-1-carboxamide]	> 10000 nM
CNC(=O)[C@@H](NC(=O)c1nc(-c2cccc(-c3nnc(C)o3)c2)n2c1CN(C)CCC2)C(C)(C)C [Compound 407, (S)-N-(3,3-dimethyl-1-(methylamino)-1-oxobutan-2-yl)-8-methyl-3-(3-(5-methyl-1,3,4-oxadiazol-2-yl)phenyl)-6,7,8,9-tetrahydro-5H-imidazo[1,5-a][1,4]diazepine-1-carboxamide]	> 10000 nM
CC(C)CN1CCn2c(-c3ccccc3)nc(C(=O)N[C@@H](CO)C(C)(C)C)c2C1 [Compound 68, (R)-N-(1-hydroxy-3,3-dimethylbutan-2-yl)-7-isobutyl-3-phenyl-5,6,7,8-tetrahydroimidazo[1,5-a]pyrazine-1-carboxamide]	> 10000 nM

Same assay, conditions: agonist or inverse agonist at hCB2

Structure (SMILES)	+/− HCB2
CN1CCCn2c(-c3ccccc3)nc(C(=O)N[C@H](C(=O)NC3CC3)C(C)(C)C)c2C1 [Compound 477, (S)-N-(1-(cyclopropylamino)-3,3-dimethyl-1-oxobutan-2-yl)-8-methyl-3-phenyl-6,7,8,9-tetrahydro-5H-imidazo[1,5-a][1,4]diazepine-1-carboxamide]	+
CNC(=O)[C@@H](NC(=O)c1nc(-c2cc(F)cc(C(N)=O)c2)n2c1CN(C)CCC2)C(C)(C)C [Compound 416, (S)-3-(3-carbamoyl-5-fluorophenyl)-N-(3,3-dimethyl-1-(methylamino)-1-oxobutan-2-yl)-8-methyl-6,7,8,9-tetrahydro-5H-imidazo[1,5-a][1,4]diazepine-1-carboxamide]	+
CNC(=O)[C@@H](NC(=O)c1nc(-c2cccc(Cl)c2)n2c1CNCC2)C(C)(C)C [Compound 18, (S)-3-(3-chlorophenyl)-N-(3,3-dimethyl-1-(methylamino)-1-oxobutan-2-yl)-5,6,7,8-tetrahydroimidazo[1,5-a]pyrazine-1-carboxamide]	+
CC(C)(C)OC(=O)N1CCn2c(-c3ccccc3)nc(C(=O)NCC3CCOCC3)c2C1 [Compound 38, tert-butyl 3-phenyl-1-((tetrahydro-2H-pyran-4-yl)methylcarbamoyl)-5,6-dihydroimidazo[1,5-a]pyrazine-7(8H)-carboxylate]	−
CNC(=O)[C@@H](NC(=O)c1nc(-c2ccccc2)n2c1CN(Cc1nccs1)CC2)C(C)(C)C [Compound 72, (S)-N-(3,3-dimethyl-1-(methylamino)-1-oxobutan-2-yl)-3-phenyl-7-(thiazol-2-ylmethyl)-5,6,7,8-tetrahydroimidazo[1,5-a]pyrazine-1-carboxamide]	+
CNC(=O)[C@@H](NC(=O)c1nc(-c2ccco2)n2c1CNCC2)C(C)(C)C [Compound 15, (S)-N-(3,3-dimethyl-1-(methylamino)-1-oxobutan-2-yl)-3-(furan-2-yl)-5,6,7,8-tetrahydroimidazo[1,5-a]pyrazine-1-carboxamide]	+
CC(=O)N1CCn2c(-c3ccccc3)nc(C(=O)NC3CCCCC3)c2C1 [Compound 177, 7-acetyl-N-cyclohexyl-3-phenyl-5,6,7,8-tetrahydroimidazo[1,5-a]pyrazine-1-carboxamide]	+
CC(C)CN1CCn2c(-c3ccccc3)nc(C(=O)NC3CCCCC3)c2C1 [Compound 165, N-cyclohexyl-7-isobutyl-3-phenyl-5,6,7,8-tetrahydroimidazo[1,5-a]pyrazine-1-carboxamide]	+
CNC(=O)[C@@H](NC(=O)c1nc(-c2ccccc2)n2c1CN(S(=O)(=O)CC(C)C)CC2)C(C)(C)C [Compound 95, (S)-N-(3,3-dimethyl-1-(methylamino)-1-oxobutan-2-yl)-7-(isobutylsulfonyl)-3-phenyl-5,6,7,8-tetrahydroimidazo[1,5-a]pyrazine-1-carboxamide]	−
CNC(=O)[C@@H](NC(=O)c1nc(-c2ccc(C#N)cc2)n2c1CN(C)CC2)C(C)(C)C [Compound 254, (S)-3-(4-cyanophenyl)-N-(3,3-dimethyl-1-(methylamino)-1-oxobutan-2-yl)-7-methyl-5,6,7,8-tetrahydroimidazo[1,5-a]pyrazine-1-carboxamide]	+
CNC(=O)[C@@H](NC(=O)c1nc(C2CCCC2)n2c1CN(C)CC2)C(C)(C)C [Compound 303, (S)-3-cyclopentyl-N-(3,3-dimethyl-1-(methylamino)-1-oxobutan-2-yl)-7-methyl-5,6,7,8-tetrahydroimidazo [1,5-a]pyrazine-1-carboxamide]	+
CNC(=O)[C@@H](NC(=O)c1nc(-c2ccc(F)c(C#N)c2)n2c1CN(C)CCC2)C(C)(C)C [Compound 425, (S)-3-(3-cyano-4-fluorophenyl)-N-(3,3-dimethyl-1-(methylamino)-1-oxobutan-2-yl)-8-methyl-6,7,8,9-tetrahydro-5H-imidazo[1,5-a][1,4]diazepine-1-carboxamide]	+
CNC(=O)[C@H](CC(C)C)NC(=O)c1nc(C2CCCCC2)n2c1CN(C)CCC2 [Compound 540, (S)-3-cyclohexyl-8-methyl-N-(4-methyl1-1-(methylamino)-1-oxopentan-2-yl)-6,7,8,9-tetrahydro-5H-imidazo[1,5-a][1,4]diazepine-1-carboxamide]	+

Same assay, conditions: groups >100 nM-10 μM and >10 μM; cAMP, CHO-K1 hCB2; read-out: EC50 HCB2

Structure (SMILES)	EC50
CN1CCn2c(-c3ccc(Cl)cc3F)nc(C(=O)Nc3ccc(S(=O)(=O)N4CCOCC4)cc3)c2C1 [Compound 219]	> 10000 nM
CC(C)(CO)CNC(=O)c1nc(-c2ccccc2)n2c1CNCC2 [Compound 29, N-(3-hydroxy-2,2-dimethylpropyl)-3-phenyl-5,6,7,8-tetrahydroimidazo[1,5-a]pyrazine-1-carboxamide]	> 10000 nM
